# Results published in the BET-seq Pho4 binding data (Le et al. 2018).
# This is one part of the list. These are noisy estimates, calculated here from bound and input reads.
# Target: T1, Pho4 (S. cerevisiae) (UniProt P07270)
# T1 sequence: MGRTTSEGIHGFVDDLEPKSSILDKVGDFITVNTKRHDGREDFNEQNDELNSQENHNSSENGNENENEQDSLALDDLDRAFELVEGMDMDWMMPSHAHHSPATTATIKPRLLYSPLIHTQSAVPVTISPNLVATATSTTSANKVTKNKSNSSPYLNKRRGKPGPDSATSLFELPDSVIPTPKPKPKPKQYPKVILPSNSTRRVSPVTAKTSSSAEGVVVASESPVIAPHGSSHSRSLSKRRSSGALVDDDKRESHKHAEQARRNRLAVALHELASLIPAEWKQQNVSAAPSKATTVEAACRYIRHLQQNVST
# Test: relative binding free energy (BET-seq); higher = weaker binding
# Conditions: reference: library average
row,Sequence,relative binding free energy [kcal/mol]
1,GCTTTCACGTGAGGAT,0.43
2,TCGGACACGTGGGGGT,-0.13
3,AGGCTCACGTGGTGTT,0.14
4,AGTCTCACGTGGATTA,0.29
5,CGTAGCACGTGTCTTT,0.03
6,AGAAGCACGTGTAGGG,-0.04
7,TTGCGCACGTGTTACG,0
8,AAGGCCACGTGCGGTT,-0.09
9,ATGTGCACGTGGTTCA,-0.14
10,TTGGTCACGTGAGCAT,0.26
11,GATCTCACGTGGGGAG,0.22
12,CATACCACGTGGGGGT,-0.09
13,AGGATCACGTGAATGG,0.37
14,GTGGGCACGTGGTGGA,-0.04
15,GGGTGCACGTGTTAAG,0.08
16,CTTCGCACGTGGAGTG,0.03
17,GGGTACACGTGGTTCT,0
18,TTTCACACGTGGTTTA,0
19,TGTCGCACGTGTAAGA,0.06
20,CGAGTCACGTGATTTG,0.35
21,TGGAACACGTGTTCTT,0.04
22,TGGTCCACGTGAGGAT,0.33
23,TATTTCACGTGTTTCC,0.34
24,TATTGCACGTGGGATT,-0.04
25,TTATACACGTGGAGGG,0.06

row,Sequence,relative binding free energy [kcal/mol]
1,TGGTGCACGTGAGTTA,0.26
2,TTGAGCACGTGGACGT,-0.05
3,TTGTGCACGTGTAATC,0.08
4,TGGGTCACGTGGCCTT,0.01
5,TGGCGCACGTGACGTT,0.12
6,TGCTTCACGTGGTTTT,0.2
7,CCTAGCACGTGTGGTG,-0.06
8,TGGTACACGTGGTTGA,0.05
9,CGTTGCACGTGTTGAG,0.05
10,GTTTCCACGTGTGTCG,0.15
11,TAAGTCACGTGGATAT,0.13
12,TAAGTCACGTGAAGGA,0.46
13,GATTCCACGTGTTTGG,0.06
14,AGATGCACGTGTTTGC,-0.02
15,GTGGTCACGTGTAACG,0.26
16,TTACTCACGTGTGGAG,0
17,CATGTCACGTGAGAGG,0.17
18,AGTCGCACGTGTAAGG,-0.05
19,GGTATCACGTGTCGGA,0.39
20,TCCGGCACGTGGGTGG,-0.26
21,GGTCTCACGTGATAGG,0.3
22,CGGAGCACGTGGGGTT,-0.17
23,TGCTCCACGTGGGCGG,-0.1
24,TGGGACACGTGTTGGA,0.03
25,TGCGGCACGTGGGTGT,-0.25

row,Sequence,relative binding free energy [kcal/mol]
1,ATGATCACGTGCGAGG,0.07
2,CTAGGCACGTGGTGAT,-0.16
3,TATAGCACGTGGGGAA,-0.32
4,GAAAACACGTGGGATG,0.06
5,GGACTCACGTGTGATG,0.39
6,TAGTACACGTGTTGAA,-0.06
7,AGGGTCACGTGCGGTG,0.09
8,AAATGCACGTGTAGTG,-0.21
9,GGAATCACGTGGGATT,0.06
10,TCGATCACGTGGTTGG,0.13
11,GTTGTCACGTGGAGTC,0.24
12,TGAGGCACGTGTCTTG,-0.06
13,TACTTCACGTGGGTAG,0.13
14,TGTATCACGTGTGACT,0.18
15,TTGAGCACGTGGAAGT,0.04
16,GGGGGCACGTGCTGTA,-0.32
17,AATGTCACGTGTTTAA,0.07
18,GTAAGCACGTGGCGTG,-0.24
19,AAGTGCACGTGTGTTG,-0.03
20,GGGCTCACGTGTGGTG,0.3
21,GTGTTCACGTGTCATT,0.26
22,ACTTACACGTGAGGTG,0.31
23,ACGGACACGTGTGGGT,0.06
24,ATGGGCACGTGTTCTG,-0.01
25,GGAGTCACGTGTGCAT,0.13

row,Sequence,relative binding free energy [kcal/mol]
1,TTAAGCACGTGGAGTG,-0.16
2,AGTGTCACGTGGTTTT,0.06
3,GTGAGCACGTGTAGTT,0.05
4,TGCATCACGTGTGTTT,0.16
5,TGTTTCACGTGCTGCG,0.11
6,TCGTTCACGTGCGTTG,0
7,TGTCTCACGTGAAGTA,0.36
8,GAGGACACGTGGCGGT,-0.07
9,CATTTCACGTGGGATG,0.08
10,TAGGTCACGTGTATGC,0.07
11,AGGCCCACGTGTAGGG,-0.11
12,CATTACACGTGTTGAT,0.18
13,GATGTCACGTGATAGT,0.18
14,TAAAACACGTGGGGTT,-0.02
15,AATGTCACGTGTTACA,0.28
16,TTGATCACGTGTGAGT,0.19
17,AATTGCACGTGAGAGT,0.24
18,ACGGTCACGTGGGAGG,-0.07
19,TATACCACGTGGGTTG,-0.13
20,AAAGTCACGTGGGGAA,0.13
21,TTGTGCACGTGTCGAT,0.1
22,TTATACACGTGTGTTA,-0.01
23,AATGGCACGTGGGGGC,-0.13
24,AAAGACACGTGGTCGG,0
25,AATTTCACGTGGTGAA,0.11

row,Sequence,relative binding free energy [kcal/mol]
1,GGCGCCACGTGGGGGC,-0.22
2,AAGTTCACGTGTGCTT,0.15
3,ATGAACACGTGGGGGT,-0.07
4,CTATTCACGTGGTGAT,0.1
5,CGTAGCACGTGCGGGG,-0.14
6,GGTCTCACGTGAGGTA,0.19
7,TTATTCACGTGTTATT,0.27
8,CTGTTCACGTGGGCGG,0.1
9,GTGTTCACGTGGAGAA,0.15
10,ATAGGCACGTGTATGG,-0.11
11,TATTGCACGTGTAATA,0.14
12,ATGGGCACGTGATTGC,0.04
13,GGGCTCACGTGTGGAA,0.33
14,TCTAGCACGTGGTTGT,-0.08
15,GGTCGCACGTGTTGAG,-0.07
16,AGTGACACGTGTTATA,-0.03
17,GTAGTCACGTGGCTGT,0
18,TGCGACACGTGGGTGC,-0.18
19,GAGTACACGTGAGTGC,0.22
20,TTGGGCACGTGCCGGA,-0.19
21,GGGGACACGTGCGGTA,0.09
22,ATTATCACGTGTTGAA,0
23,AATAGCACGTGGGCGC,-0.05
24,ATATTCACGTGGAGAT,0.33
25,TTGAACACGTGTCAGG,0

row,Sequence,relative binding free energy [kcal/mol]
1,CTGTCCACGTGGGGGT,-0.1
2,GGTATCACGTGAGCGG,0.3
3,GCAAGCACGTGTAGGT,-0.05
4,TTTCTCACGTGTAGTA,0.14
5,TTGGCCACGTGGCGGC,-0.02
6,TAGGTCACGTGTCGTA,0.04
7,TAACACACGTGTTTTT,0.14
8,GGAGTCACGTGGAGAG,0.19
9,GTATTCACGTGAGCTT,0.38
10,AGAGGCACGTGAGGGA,0.22
11,TGATTCACGTGTCAGT,0.25
12,CTATGCACGTGTTTGT,0.01
13,AAGGACACGTGTAATT,0.21
14,GCCGGCACGTGTGGGA,0.1
15,CCGGGCACGTGATGTT,0.09
16,CTAAGCACGTGGGTTG,-0.32
17,GGGAACACGTGGGGTC,-0.03
18,TGGGTCACGTGCGCAG,-0.09
19,TTGATCACGTGTTGTG,0.12
20,TTAGTCACGTGGGTTA,-0.05
21,AGTCGCACGTGATAGG,-0.03
